Test results from the supplement of paper PMC6531468.
This is one part of the list. Values come from read counts of a selection and are noisy. Scores sum up all selected molecules that hold the word; the word was not tested alone.

Columns and labels:
Assay in all cases: 6-mer SELEX enrichment z-score vs GST control; IMP3 is the RNA-binding protein IGF2BP3; higher = more enriched by binding
[1] = tested on: IMP3 KH1-4; conditions: construct: KH1-4 (164-579); SELEX round: R4
Description: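 SELEX-seq with GST-tagged IMP3 KH1-4 (Pro164-Lys579) and an N40 RNA pool, round 4. 6-mer z-score of sequence-tag enrichment normalised to the corresponding GST SELEX round; RNA k-mers written as DNA (T for U).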

[2] = tested on: IMP3 RRM1-2; conditions: construct: RRM1-2 (1-163); SELEX round: R2
Description: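 SELEX-seq with GST-tagged IMP3 RRM1-2 (Met1-Asn163) and an N40 RNA pool, round 2. 6-mer enrichment z-score normalised to GST SELEX. RNA written as DNA (T = U).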

[3] = target: IMP3 full-length (UniProt O00425); conditions: construct: FL IMP3 (1-579); SELEX round: R4
Description: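 SELEX-seq with GST-tagged full-length IMP3 and an N40 RNA pool, round 4. Each 6-mer is scored as an enrichment z-score of sequence tags containing it, normalised to the matching GST SELEX round. RNA written as DNA (T = U).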

[4] = tested on: IMP3 KH1-2; conditions: construct: KH1-2 (164-376); SELEX round: R4
Description: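 SELEX-seq with GST-tagged IMP3 KH1-2 (Pro164-Phe376) and an N40 RNA pool, round 4 (stringent 300/600 mM KCl washes). 6-mer z-score of sequence-tag enrichment normalised to the corresponding GST SELEX round; RNA k-mers written as DNA (T for U).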

[5] = tested on: IMP3 KH3-4; conditions: construct: KH3-4 (377-579); SELEX round: R4
Description: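 SELEX-seq with GST-tagged IMP3 KH3-4 (Pro377-Lys579) and an N40 RNA pool, round 4. 6-mer z-score of sequence-tag enrichment normalised to the corresponding GST SELEX round; RNA k-mers written as DNA (T for U).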

UniProt O00425, sequence (O00425 whole entry): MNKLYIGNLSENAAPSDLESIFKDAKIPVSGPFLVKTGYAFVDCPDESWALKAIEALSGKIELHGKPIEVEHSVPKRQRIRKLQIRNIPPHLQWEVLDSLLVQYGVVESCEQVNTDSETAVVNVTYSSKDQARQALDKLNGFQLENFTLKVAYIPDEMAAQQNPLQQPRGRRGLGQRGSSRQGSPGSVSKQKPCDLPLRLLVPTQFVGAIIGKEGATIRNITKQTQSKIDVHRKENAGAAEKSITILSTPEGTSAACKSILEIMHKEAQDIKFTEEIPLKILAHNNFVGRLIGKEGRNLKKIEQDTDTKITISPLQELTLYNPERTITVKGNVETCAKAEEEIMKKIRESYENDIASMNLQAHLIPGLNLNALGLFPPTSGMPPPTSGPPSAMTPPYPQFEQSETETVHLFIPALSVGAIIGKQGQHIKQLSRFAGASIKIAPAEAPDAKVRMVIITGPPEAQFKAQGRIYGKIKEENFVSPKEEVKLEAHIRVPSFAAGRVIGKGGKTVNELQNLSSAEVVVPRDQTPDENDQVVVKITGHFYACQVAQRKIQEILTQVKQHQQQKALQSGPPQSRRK
IMP3 KH1-2, sequence (chain, as listed by the source): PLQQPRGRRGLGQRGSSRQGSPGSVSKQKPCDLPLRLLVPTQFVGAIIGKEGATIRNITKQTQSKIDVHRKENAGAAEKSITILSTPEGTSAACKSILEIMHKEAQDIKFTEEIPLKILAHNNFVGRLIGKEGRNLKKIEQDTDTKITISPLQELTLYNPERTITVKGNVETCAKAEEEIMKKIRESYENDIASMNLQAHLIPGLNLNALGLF
IMP3 KH3-4, sequence (chain, as listed by the source): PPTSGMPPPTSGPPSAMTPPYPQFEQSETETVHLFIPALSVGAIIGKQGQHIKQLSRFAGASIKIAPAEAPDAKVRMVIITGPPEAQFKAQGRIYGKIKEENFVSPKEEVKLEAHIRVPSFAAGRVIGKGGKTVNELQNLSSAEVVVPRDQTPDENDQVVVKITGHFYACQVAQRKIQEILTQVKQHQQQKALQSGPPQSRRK
IMP3 KH1-4, sequence (chain, as listed by the source): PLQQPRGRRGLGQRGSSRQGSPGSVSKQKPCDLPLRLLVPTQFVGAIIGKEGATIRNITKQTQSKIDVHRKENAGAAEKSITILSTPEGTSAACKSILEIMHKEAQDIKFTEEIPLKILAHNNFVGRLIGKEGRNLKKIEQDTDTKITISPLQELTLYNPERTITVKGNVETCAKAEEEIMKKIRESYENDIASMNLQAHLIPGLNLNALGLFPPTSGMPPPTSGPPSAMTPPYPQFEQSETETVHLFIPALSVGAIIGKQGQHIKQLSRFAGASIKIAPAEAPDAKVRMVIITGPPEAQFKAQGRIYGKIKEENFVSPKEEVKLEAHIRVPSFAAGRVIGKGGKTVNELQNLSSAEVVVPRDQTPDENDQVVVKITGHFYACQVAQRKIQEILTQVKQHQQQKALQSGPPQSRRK
IMP3 RRM1-2, sequence (chain, as listed by the source): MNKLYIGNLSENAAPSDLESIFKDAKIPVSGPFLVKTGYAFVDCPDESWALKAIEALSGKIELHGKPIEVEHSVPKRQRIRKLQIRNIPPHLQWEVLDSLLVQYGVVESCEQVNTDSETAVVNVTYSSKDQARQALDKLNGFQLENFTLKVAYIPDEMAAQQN

Sequence | 6-mer SELEX enrichment z-score [1] | 6-mer SELEX enrichment z-score [2] | 6-mer SELEX enrichment z-score [3] | 6-mer SELEX enrichment z-score [4] | 6-mer SELEX enrichment z-score [5]
GATGAA | 1.33 | -1.42 | -0.598 | 0.971 | 1.91
GAGAAT | 0.463 | -0.898 | -0.493 | 0.248 | 0.879
CCAATG | -0.65 | -0.68 | -0.835 | -0.813 | -0.918
TGCACT | 0.683 | 0.27 | 0.344 | 0.503 | 0.33
CCTCAT | 0.364 | 0.821 | 0.464 | 0.337 | -0.071
GTTATA | 0.387 | -0.016 | -0.021 | 0.331 | 0.577
CCGTCT | -0.574 | 0.116 | 0.082 | -0.368 | -0.431
GCTTTG | 0.082 | 0.293 | 0.052 | 0.086 | 0.192
AAGTCT | -0.469 | 0.054 | -0.143 | -0.425 | -0.352
ATGAGT | 0.05 | -0.034 | -0.275 | -0.174 | 0.207
CACCAT | 1.45 | 1.3 | 1.62 | 1.39 | 0.534
TATGCC | -0.077 | -0.29 | -0.473 | -0.138 | -0.251
TAGCCT | -0.488 | -0.09 | -0.451 | -0.465 | -0.419
CTGGCA | 0.54 | 0.45 | 1.03 | 0.378 | 0.257
GACACC | -0.826 | -0.183 | -0.629 | -0.974 | -1.54
ATATCG | 0.585 | 0.091 | 0.383 | 0.359 | 0.569
GAGAGG | 1.23 | -0.635 | 0.4 | 1.1 | 1.12
GTGCAC | 0.585 | 0.17 | 0.635 | 0.297 | 0.156
CTAGAC | -0.627 | -0.473 | -0.776 | -0.628 | -0.703
GGGGCA | 1.42 | 0.159 | 1.21 | 1.71 | 1.4
GTACGA | -0.946 | -0.599 | -0.573 | -1.07 | -0.96
ATACAC | 2.17 | 1.65 | 1.65 | 2.8 | 1.74
GCCGGC | 0.808 | 0.174 | 1.24 | 0.767 | 0.528
ACCAGT | 0.224 | 0.21 | 0.192 | 0.04 | -0.131
CGTCAT | -0.062 | 0.508 | 0.719 | -0.12 | -0.081
ATAGTC | 0.573 | 0.262 | 0.427 | 0.354 | 0.46
CGGGGT | 0.045 | 0.136 | 0.359 | 0.252 | 0.242
CGTATA | -0.21 | -0.131 | -0.365 | -0.268 | -0.102

Sequence | 6-mer SELEX enrichment z-score [1] | 6-mer SELEX enrichment z-score [2] | 6-mer SELEX enrichment z-score [3] | 6-mer SELEX enrichment z-score [4] | 6-mer SELEX enrichment z-score [5]
ATGGCC | 0.71 | -0.169 | 0.371 | 0.482 | 0.502
AACAGA | 0.529 | 0.219 | 0.687 | 0.98 | 1.02
AGTATA | 0.561 | -0.176 | 0.014 | 0.479 | 1.01
GAATAC | 0.373 | -0.851 | -0.44 | 0.342 | 0.535
CGGTAA | 0.017 | -0.315 | -0.098 | -0.09 | 0.186
ATTAGG | 0.712 | 0.308 | 0.357 | 0.559 | 1.03
TGGGGA | 0.7 | -0.041 | 0.298 | 0.79 | 0.828
CCCTAC | -0.879 | -0.176 | -0.979 | -0.731 | -1.36
AATACT | 0.597 | -0.332 | -0.429 | 0.762 | 0.883
CCCGGG | -1.45 | -0.651 | -0.481 | -1.06 | -1.32
AGGCTG | 0.338 | 0.2 | 0.506 | 0.259 | 0.321
GTTATG | 0.275 | 0.134 | -0.114 | 0.086 | 0.264
CGTCTA | -0.586 | 0.179 | -0.01 | -0.428 | -0.386
GCCGGT | -0.144 | 0 | 0.209 | -0.088 | -0.099
CACGTC | -0.448 | 0.429 | 0.649 | -0.542 | -0.801
CCGGGC | -1.69 | -0.315 | 0.301 | -1.38 | -1.39
TTGAGC | -2.71 | -0.092 | -1.69 | -2.52 | -2.37
TTTCCT | 0.964 | 0.183 | 0.077 | 0.99 | 0.669
TATTTT | 1.25 | 0.38 | 0.431 | 1.16 | 1.85
CTGTTA | 0.297 | -0.035 | -0.087 | 0.25 | 0.191
TGTCCG | -0.059 | -0.179 | 0.12 | -0.155 | -0.299
TGTCAG | 0.06 | 0.234 | 0.291 | -0.005 | 0.054
CGAGGT | -0.659 | -0.117 | -0.03 | -0.488 | -0.375
TACCCA | -1.7 | -0.329 | -1.29 | -1.72 | -2.08
TAAAGG | 0.276 | -0.654 | -0.289 | 0.133 | 0.867
ATTGAT | 1.21 | -0.125 | 0.037 | 0.754 | 1.53
CAGGTA | -0.104 | 0.448 | 0.352 | -0.094 | -0.045
